From PubChem BioAssay AID488969 (Vanderbilt High Throughput Screening Facility, 2010)
The full ranking holds about 110,000 compounds; the median of “z-score” is about -0.1, and the highest 2% start at about 2. The list shows a part of the results. Activity calls are given as the source filed them.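 Rule for the calls: active = z-score in the third read window above 3 or below -3; inactive = the rest.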

biological target: Metabotropic glutamate receptor 8 (Rattus norvegicus) (UniProt P70579); assay: mGluR8 Gi/Go-coupled signaling modulation – cell-based, rat, thallium flux, HTS, primary screen (AID 488969); conditions: HEK293 rat mGluR8, GIRK (G protein-gated inwardly rectifying potassium channel) thallium flux, FluoZin2; at 10 µM; stronger effect = higher value; submaximal glutamate (EC20) added with thallium
UniProt P70579, sequence (P70579 whole entry, looked up): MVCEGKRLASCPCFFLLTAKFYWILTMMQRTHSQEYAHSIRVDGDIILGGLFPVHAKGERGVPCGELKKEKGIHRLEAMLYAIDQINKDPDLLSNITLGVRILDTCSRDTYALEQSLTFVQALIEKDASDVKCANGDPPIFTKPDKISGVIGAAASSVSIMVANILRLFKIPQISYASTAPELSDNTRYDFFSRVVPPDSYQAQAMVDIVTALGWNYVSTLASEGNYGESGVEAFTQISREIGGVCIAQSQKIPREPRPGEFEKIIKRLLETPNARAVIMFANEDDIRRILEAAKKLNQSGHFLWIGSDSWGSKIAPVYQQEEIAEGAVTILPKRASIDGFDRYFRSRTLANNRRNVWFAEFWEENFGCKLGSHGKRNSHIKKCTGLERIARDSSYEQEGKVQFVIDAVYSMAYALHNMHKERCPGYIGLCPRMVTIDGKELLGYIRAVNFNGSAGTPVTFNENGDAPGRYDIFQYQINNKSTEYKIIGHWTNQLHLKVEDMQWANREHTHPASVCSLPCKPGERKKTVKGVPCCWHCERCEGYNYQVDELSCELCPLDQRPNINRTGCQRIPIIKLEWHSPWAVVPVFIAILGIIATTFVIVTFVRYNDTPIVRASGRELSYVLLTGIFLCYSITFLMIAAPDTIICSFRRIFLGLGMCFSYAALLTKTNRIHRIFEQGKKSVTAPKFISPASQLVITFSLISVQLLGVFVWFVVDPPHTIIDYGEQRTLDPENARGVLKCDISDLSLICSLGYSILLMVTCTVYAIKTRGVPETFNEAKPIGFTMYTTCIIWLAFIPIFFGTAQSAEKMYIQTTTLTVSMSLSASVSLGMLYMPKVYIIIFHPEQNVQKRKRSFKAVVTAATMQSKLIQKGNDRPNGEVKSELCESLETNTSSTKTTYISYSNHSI

Structure (SMILES) | z-score
COc1cccc(NC(=O)c2ocnc2C)c1 | -0.0866
CC(C)CNS(=O)(=O)c1ccc(CCC(=O)N2CCN(Cc3ccc4c(c3)OCO4)CC2)cc1 | -0.432
O=C(c1ccc(N2CCOCC2)cc1)c1cccs1 | -0.228
CCc1ccc(C(=O)N/N=C/c2ccc(Cl)cc2Cl)nc1 | -0.0339
COc1ccccc1Oc1c(C)oc2c(CN(C)C)c(O)ccc2c1=O | -0.0321
COc1ccc(-c2cc(CCCC(=O)NCc3ccccn3)no2)cc1 | 0.402
Cc1cccc(NC(=O)c2sc(NC(=O)COc3ccccc3)c(C#N)c2C)c1C | -0.152
O=C(Nc1ccc(-c2noc(COc3ccccc3Cl)n2)cc1)c1ccco1 | -0.35
C=CC[N+](C)(C)CCCNC(=O)/C=N/O | -0.147
COc1cc(S(=O)(=O)NCCOC23CC4CC(CC(C4)C2)C3)c(OC)cc1Cl | 0.206
N#Cc1c(/N=C/c2ccc(Br)s2)sc2c1CCC2 | 0.0576
COc1ccccc1C/C(N)=N/OC(=O)c1cccc([N+](=O)[O-])c1 | 0.0551
CCc1c(C)nc(SCC(=O)CC(=O)OC(C)C)c(C#N)c1C | -0.0446
Cc1ccc(C)c(NC(=S)c2nc3ccccc3s2)c1 | active: 8.98
Cc1nn(-c2ccccc2)c(C)c1/C=N\N1CCN(c2ccc(Cl)cc2)CC1 | -0.183
O=C(CSCc1ccc(Br)cc1)Nc1ccc(S(=O)(=O)N2CCOCC2)cc1 | 0.242
CCOC(=O)C1CCCN(C(=O)c2cc3nc(-c4ccc5c(c4)OCO5)cc(C(F)(F)F)n3n2)C1 (configuration not stated) | -0.345
COc1cccc2c1N1C(=O)c3c(C(=O)O)cccc3C1CC2(C)C (configuration not stated) | 1.11
O=C(NCCO)NC(=S)c1ccccc1 | -0.169
C=CCNC(=O)c1onc(CSc2cc(C)cc(C)c2)c1C(=O)O | -0.208
CCOC(=O)c1coc(CNC(=O)c2c(C)oc3c2CCCC3)c1 | -0.0273
CCOc1nc(Nc2cc(Cl)ccc2OC)nc(OCC)n1 | -1.03
O=C(CSc1nc2ccsc2c(=O)n1NC(=O)c1ccccc1)Nc1nccs1 | -0.202

Structure (SMILES) | z-score
COC(=O)c1cc2cc(NS(=O)(=O)c3ccc(C)cc3)ccc2s1 | 0.00805
Cc1cccc(C)c1NC(=O)CC(NCc1ccco1)C(=O)O (configuration not stated) | 0.32
CC(c1ccccc1)n1c(-c2ccncc2)n[nH]c1=S (configuration not stated) | 0.000563
Cn1c(=O)[nH]c2cc3ccccc3cc21 | -0.182
O=C(/C=C/c1ccccc1)N1CCC(c2ccccc2)C1 (configuration not stated) | -0.0939
O=C(Nc1ccccc1)O/N=C/c1ccncc1 | -0.107
Cc1cc(NC(=O)CSc2cc(Cl)ccc2Cl)n(-c2ccccc2)n1 | 1.94
Cc1ccc(NC(=O)CSc2nnnn2-c2ccc3c(c2)OCO3)cc1C | -0.16
N#Cc1ccc(/C=N/N=C(N)N)cc1 | -0.322
CCNc1nc(NC(C)C)nc(Nn2cnnc2)n1 | -0.0436
C(=N\n1cnnc1)/c1ccccn1 | -0.0685
CCOC(=O)Cc1csc(NC(=O)c2cccc(OC)c2)n1 | 0.0443
CN(C)C(=O)c1ccc(-n2nc(C(F)(F)F)c3c2CCCC3)cc1 | -0.213
Nc1nonc1-c1noc(-c2ccccc2Br)n1 | -0.341
c1ccc(-c2nnc(-c3cccc(-c4nnc(-c5ccccc5)o4)c3)o2)cc1 | -0.336
CCC(C)N(NC(C)=O)c1nc(Cl)nc(NC(C)(C)C)n1 (configuration not stated) | -0.173
CC1CN(C(=O)c2ccc3c(c2)OCO3)OC(c2ccccc2)O1 (configuration not stated) | -0.0491
O=C(N/N=C/c1ccco1)c1cc(C2CC2)nc2ccccc12 | -0.165
FCCCOc1ccc(-c2ccnc(-c3ccccc3)n2)cc1 | -0.771
Cc1nn(C)c(C)c1NC(=O)CSc1nc(-c2ccccc2Cl)nc2c1cnn2-c1ccccc1 | 1.21
COc1ccccc1Nc1cc(C(=O)NCCCN2CCOCC2)c2ccccc2n1 | 1.29
O=C(O)c1cc(-c2ccccn2)n[nH]1 | 0.643
CN(c1ccccc1)S(=O)(=O)c1cc(C(=O)Nc2nc3ccccc3[nH]2)ccc1Cl | -0.104

Structure (SMILES) | z-score
CC1=N/C(=C\c2ccc([N+](=O)[O-])cc2)C(=O)N1c1ccc(Cl)cc1 | -0.292
O=C(NC(=S)Nc1nc(-c2ccccc2)cs1)c1cncc(Br)c1 | 0.252
O=C1CC(C(=O)Nc2ccc(O)c(C(=O)O)c2)C(c2ccccc2)O1 (configuration not stated) | -0.066
CCOC(=O)c1cnn2c(C)cc(-c3ccc(F)cc3)nc12 | -0.151
O=C(CSc1nnnn1-c1ccccc1)Nc1ncc2c(n1)CC(c1ccccc1)CC2=O (configuration not stated) | 0.798
Cc1cc(C)cc(C(=O)N2CCN=C2c2ccccc2)c1 | -0.228
CC1(C)Cc2c(sc3nnn(Cc4ccccc4)c(=O)c23)CO1 | -0.402
CCOC(=O)c1c(COc2ccccc2)oc2ccc(O)cc12 | 0.0491
O=S(=O)(c1ccc(Br)s1)N1CCCCC1 | -0.213
O=C(CSCc1ccccc1)NNC(=S)Nc1cccc(Cl)c1Cl | 0.701
COc1ccc(NC(=O)C23CCC(C)(C(=O)C2)C3(C)C)cc1 (configuration not stated) | 0.0344
Cc1c(C(=O)OCCN2CCCCC2)oc2ccccc12 | 0.189
Cc1ccnc2c(N3C(=O)C4C5c6ccccc6C(c6ccccc65)C4C3=O)cccc12 (configuration not stated) | -0.78
COc1ccc(CNCCSc2nnnn2C)cc1OC | 0.0427
Cc1cc(C(=O)N2CCN(c3ncccn3)CC2)c(C)o1 | 0.574
Cc1ccc(N2CCN(c3ccc(NCc4nc5ccccc5n4C)cc3)CC2)cc1 | -0.26
C=CCN(c1cccc(C(F)(F)F)c1)S(=O)(=O)c1cccc(C(=O)OCC(=O)NC)c1 | -0.13
Cc1cc(NC(=O)CSc2nnc(-c3ccco3)n2Cc2ccccc2)no1 | -0.0382
CC(C)C(=O)NC(c1ccc([N+](=O)[O-])cc1)c1c(O)ccc2ccccc12 (configuration not stated) | -0.44
Nc1c(C(=O)NCc2ccccc2)nnn1Cc1cccc(Cl)c1 | -0.134
COc1ccccc1N1CCN(C(=O)c2ccc3[nH]c4c(c3c2)CCCC4)CC1 | -0.188
CC(=O)Nc1ccc(S(=O)(=O)N(CC(=O)O)Cc2ccccc2)cc1 | -0.117
Cc1nnc(SCc2cnc(-c3ccc(C(C)C)cc3)s2)n1C | 0.448

Structure (SMILES) | z-score
O=C(NCc1ccccc1)c1cc(-c2cccs2)on1 | -0.365
O=C(NCCNC(=O)c1cc(OCC(F)(F)F)ccc1OCC(F)(F)F)Nc1ccc(OC(F)(F)F)cc1 | -0.136
CC(C)(C)n1nc2c(c1NC(=O)COc1ccc3ccccc3c1)CS(=O)C2 (configuration not stated) | 0.226
CC1CCC(NC(=O)Cn2c(=O)[nH]c3ccsc3c2=O)CC1 (configuration not stated) | -0.274
O=C(Cc1c(O)c2ccccc2[nH]c1=O)N(Cc1ccccc1)Cc1ccccc1 | -0.268
O=C(COc1ccc(Br)cc1)N(Cc1ccccc1)c1ccccn1 | -0.518
Cc1ccccc1OCc1nnc(SCc2cc(=O)[nH]c3ccccc23)n1-c1ccccc1 | 0.00735
O=C(CC(c1ccc(F)cc1)c1ccco1)N1CCOCC1 (configuration not stated) | 1.19
FC(F)(F)c1ccc(N=Cc2sc(N3CCOCC3)nc2-c2ccccc2)cc1 | 0.253
COc1ccc(N2C(=O)/C(=C/c3cccnc3)NC2=S)cc1 | -0.439
Cc1cccc(-n2c(N)cc(=O)nc2SCC(=O)NC2CCCCC2)c1 | 0.281
COc1cc(-c2cc(N)n(S(=O)(=O)c3ccc(F)cc3)n2)cc(OC)c1OC | -0.632
O=C(O)C1C2C=CC(O2)C1C(=O)Nc1ccc(S(=O)(=O)Nc2ccccc2)cc1 (configuration not stated) | 0.466
CCN(c1ccccc1)S(=O)(=O)c1cc(C(=O)Nc2ccc(F)c(F)c2)ccc1F | -0.178
COC(=O)c1[nH]c2ccc(C)cc2c1NS(=O)(=O)c1ccc(F)cc1 | 0.0029
CCCN(CCC)CC(=O)Nc1cccc2c1OCO2 | -0.799
O=C(Nc1ccc(Br)cc1)c1ccc(F)c(S(=O)(=O)NCc2cccs2)c1 | 0.492
CCOC(=O)N1CCN(C(=O)CN(c2cccc(C)c2)S(=O)(=O)c2ccccc2)CC1 | -0.274
CCOc1ccccc1Oc1c(C)oc2cc(OC(=O)N3CCOCC3)ccc2c1=O | -0.0886
COc1ccc(/C=N/NC(=O)Cn2cnc3ccccc3c2=O)cc1OC | 0.0719
CCCCCNC(=O)c1cccnc1SCC(=O)Nc1ccccc1OC | -0.782
O=C(CCC(=O)Nc1ccccc1)NNC(=O)COc1ccccc1 | -0.00186
Cc1ccc(S(=O)(=O)NC(N)=NCCc2ccc(Cl)cc2)cc1C | -0.0718

Structure (SMILES) | z-score
CCOc1cc(Br)ccc1S(=O)(=O)NCc1ccccc1 | -0.241
O=C1CC(N2CCC(c3nc4ccccc4[nH]3)CC2)C(=O)N1Cc1ccccc1 (configuration not stated) | -0.112
Cc1ccc(NC(=O)c2ccc(CSc3nnc(-c4ccncc4)n3C)cc2)cc1 | 0.0453
CC(C)CCNC(=S)Nc1ccc(F)cc1 | 0.97
O=C(Cc1cscn1)c1ccc(O)cc1O | 0.188
c1ccc(C(c2nnnn2C2CCCC2)N2CCN(c3ccccc3)CC2)cc1 (configuration not stated) | 0.0202
COc1nc(Nc2ccc([N+](=O)[O-])cc2)nc(NC(C)C)n1 | -0.335
Cc1ccc2c(CC(=O)Nc3sccc3C(N)=O)coc2c1 | -0.213
COc1ccc(OCC(=O)N2CC3(C)CC2CC(C)(C)C3)cc1 (configuration not stated) | -0.2
O=C(CCl)Nc1cccc(S(=O)(=O)N2CCCCCC2)c1 | -0.426
CC(Sc1nnc(N)s1)C(=O)Nc1ccc(N2CCOCC2)cc1 (configuration not stated) | 0.0274
CC(NC(=O)CN(C1CCCCC1)S(C)(=O)=O)c1ccccc1 (configuration not stated) | 0.203
Cc1ccccc1Cn1c(CN2CCN(C(=O)c3ccco3)CC2)nc2c1c(=O)n(C)c(=O)n2C | 0.062
COC(=O)CNc1c(-c2ccccc2)nc2ccc(Br)cn12 | -0.131
c1ccc(SCc2nc(-c3ccccn3)no2)cc1 | -0.32
CC(C)(C)c1ccc(C(=O)OCCNC(=O)c2c(Cl)nc3ccccn23)cc1 | -0.742
O=c1c2c3c(sc2n2cnnc2n1-c1ccccc1)N(Cc1ccccc1)CCC3 | -0.668
O=C(O)c1ccc(NS(=O)(=O)c2cc(Cl)ccc2Cl)cc1O | 0.000578
O=C(COC(=O)c1c(Cl)cccc1Cl)Nc1cc(Cl)ccc1Oc1ccccc1 | -0.584
CCCc1cc(C(N)=O)c(NC(=O)C2CCCO2)s1 (configuration not stated) | -0.179
